Hit rate of the full screen: of about 310,000 compounds, about 2,200 (0.71%) showed an effect of 50% or more. Effects have a minus sign here. The list shows a part of the results.

The results in this text go back to PMC4336329 (PLoS ONE, 2015).

Sequence of human ether-à-go-go-related gene (hERG) potassium channel (Q12809 whole entry, looked up): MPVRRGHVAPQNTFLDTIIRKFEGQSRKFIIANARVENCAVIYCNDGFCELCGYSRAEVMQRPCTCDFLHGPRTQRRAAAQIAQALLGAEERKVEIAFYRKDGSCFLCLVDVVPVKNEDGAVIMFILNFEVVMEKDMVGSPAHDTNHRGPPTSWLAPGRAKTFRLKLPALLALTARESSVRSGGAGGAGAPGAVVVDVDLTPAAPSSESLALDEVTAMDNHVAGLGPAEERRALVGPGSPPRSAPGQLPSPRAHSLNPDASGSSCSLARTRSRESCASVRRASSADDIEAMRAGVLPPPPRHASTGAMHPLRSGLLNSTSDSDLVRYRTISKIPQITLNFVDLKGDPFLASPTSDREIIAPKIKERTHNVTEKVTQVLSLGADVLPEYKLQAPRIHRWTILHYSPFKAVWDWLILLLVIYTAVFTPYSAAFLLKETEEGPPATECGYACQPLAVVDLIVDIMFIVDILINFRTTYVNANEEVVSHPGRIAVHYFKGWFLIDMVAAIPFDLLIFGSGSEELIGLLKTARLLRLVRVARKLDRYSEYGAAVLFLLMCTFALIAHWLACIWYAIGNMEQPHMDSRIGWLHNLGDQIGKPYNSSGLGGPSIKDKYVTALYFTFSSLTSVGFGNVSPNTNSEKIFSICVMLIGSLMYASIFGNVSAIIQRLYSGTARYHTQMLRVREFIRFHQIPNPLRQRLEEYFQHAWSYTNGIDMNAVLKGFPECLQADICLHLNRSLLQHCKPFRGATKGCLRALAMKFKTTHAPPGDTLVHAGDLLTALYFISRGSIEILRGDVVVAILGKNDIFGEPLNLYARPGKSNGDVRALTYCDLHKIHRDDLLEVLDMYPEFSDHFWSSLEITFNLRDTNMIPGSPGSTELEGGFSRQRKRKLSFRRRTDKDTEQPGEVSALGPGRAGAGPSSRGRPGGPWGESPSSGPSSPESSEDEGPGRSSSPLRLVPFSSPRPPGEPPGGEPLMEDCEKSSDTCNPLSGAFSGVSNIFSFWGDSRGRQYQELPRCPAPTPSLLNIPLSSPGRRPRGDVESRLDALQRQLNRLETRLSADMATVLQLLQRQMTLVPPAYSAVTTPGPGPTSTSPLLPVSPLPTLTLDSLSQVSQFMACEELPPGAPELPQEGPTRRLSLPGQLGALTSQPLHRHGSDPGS

This assay concerns the target human ether-à-go-go-related gene (hERG) potassium channel (human, UniProt Q12809). Kind of assay: primary screen, population patch clamp on CHO cells stably expressing hERG.
In the case of `COc1ccc(CNC(=O)C2Cc3cc(S(=O)(=O)N4CCCC4)ccc3N2C(C)=O)c(OC)c1` (stereo not drawn), the “hERG current change (%, negative = inhibition) at 1uM” value came out at 15%.

With `CC(C)(C)C1CCC(OC(=O)CN2CCCCC2)CC1` (stereo not drawn), the “hERG current change (%, negative = inhibition) at 1uM” value was determined as 2.3%.

Consider `Cc1nc2cc(C(F)(F)F)ccc2n1C1CCN(CC(=O)N2CCCC2)CC1`, for which the “hERG current change (%, negative = inhibition) at 1uM” value amounted to 24.7%. As for `Cc1ccn2cc(CCNC(=O)COc3ccccc3)nc2c1`, the figure is -2.48%; as for `O=C1NCC(=O)N(Cc2ccccc2)/C1=C/c1ccccc1`, 6.63%. As for `CN(C)c1ccc(CNS(=O)(=O)c2ccc3c(c2)NC(=O)CS3)cc1`, the figure is 1.58%. Next, `COc1ccc(C)cc1NC(=O)COC(=O)c1ccc2c(c1)OCCO2`: 9.74%; `CCOC(=O)C1=C(C)Nc2nnnn2C1c1ccccc1Cl` (stereo not drawn): 2.1%; `CCCC(C)C(=O)Nc1nc(C)c(-c2csc(Nc3cc(Cl)ccc3C)n2)s1` (stereo not drawn): 6.73%. With `Cc1cc(C)nc(N/N=C/c2ccccc2Cl)n1`, the “hERG current change (%, negative = inhibition) at 1uM” value was determined as 8.88%.

Take `O=C(Nc1ccccc1)c1cnc[nH]1`: the “hERG current change (%, negative = inhibition) at 1uM” value is on record as 7.77%. As for `Cc1ccc(-c2cn(-c3ccccc3)c3[n+]2CCCS3)cc1.[Br-]`, the figure is 4.07%.

Regarding `Cc1ccc(C)c(-c2cc(C(=O)N/N=C/c3cccnc3)c3ccccc3n2)c1`, the “hERG current change (%, negative = inhibition) at 1uM” value is listed as 4.03%. On to `COc1ccccc1N(Cc1cc(=O)[nH]c2ccccc12)C(=O)C(C)C`, for which the “hERG current change (%, negative = inhibition) at 1uM” value is reported as 15.3%.

In the case of `COc1ccccc1Nc1nc(N)nc(CN2CCC(Cc3ccccc3)CC2)n1`, the “hERG current change (%, negative = inhibition) at 1uM” value was -95.7%. Next, `O=S(=O)(NCC1CCCO1)c1ccc2oc3ccc(S(=O)(=O)NCC4CCCO4)cc3c2c1` (stereo not drawn): 5.86%; `O=C(NC(=S)Nc1ccc(Oc2ccccc2)cc1)c1ccc(Cl)cc1`: 2.93%.

For `C#Cc1ccc([C@@H]2C=C(C(=O)N3CCN(Cc4ccc5c(c4)OCO5)CC3)O[C@H](OCCCCO)C2)cc1`, the “hERG current change (%, negative = inhibition) at 1uM” value is -6.13%. As for `Clc1cccc(OCCCN2CCCC2)c1Cl`, the figure is -4.56%; as for `CCOC(=O)c1sc(NC(=O)Cc2ccccc2OC)nc1C`, 10.5%.

In the case of `Cc1cc(C(=O)COC(=O)CC2Sc3ccccc3NC2=O)c(C)n1-c1cccc(C(F)(F)F)c1` (stereo not drawn), the “hERG current change (%, negative = inhibition) at 1uM” value amounted to 13.6%. As for `CCOC(=O)C1CCN(C(=O)COc2ccc(S(=O)(=O)N3CCCC3)cc2C)CC1`, the “hERG current change (%, negative = inhibition) at 1uM” value is 5.91%. Next, `Cn1c(C2=C(O)CN(c3ccccc3)C2=N)nc2ccccc21`: -12.6%; `CCOC(=O)CSC1=C(C#N)C(c2ccccc2F)C(C(C)=O)=C(C)N1` (stereo not drawn): 3.35%; `Cc1ccc(-c2nc(-c3cccnc3)sc2CC(=O)O)cc1`: 14.2%. As for `COc1cc(/C=C/C(=O)OCC(=O)NCCc2ccccc2)cc(OC)c1OC`, the figure is 24.6%; as for `O=C(NCCCN1CCOCC1)C(=O)N/N=C/c1c(Cl)cccc1Cl`, 8.5%; as for `CN(CCOc1ccccc1)CC(=O)Nc1ccc([N+](=O)[O-])cc1Cl`, 6.76%. Turning to `CC1CCCN(c2ccc(C(=O)Nc3cccnc3)cc2[N+](=O)[O-])C1` (stereo not drawn), the “hERG current change (%, negative = inhibition) at 1uM” value amounted to 11.3%. As for `C/C(=N\N1CCN(C)CC1)c1ccc(Cl)c(Cl)c1.Cl`, the “hERG current change (%, negative = inhibition) at 1uM” value is reported as -7.2%. As for `COc1cc(NC(=O)c2csc3c2CCCC3)ncn1`, the figure is 7.04%; as for `CCS(=O)(=O)N1CCCC(c2nc(-c3cccc(OC)c3)no2)C1` (stereo not drawn), 1.14%. Next, `Cc1ccc(S(=O)(=O)CCC(=O)O)cc1C`: -1.65%. As for `COCCOC(=O)c1[nH]c2c(c1C)C(=O)CC(c1cc(OC)ccc1OC)C2` (stereo not drawn), the figure is 7.81%. Regarding `CN(C)S(=O)(=O)c1cccc(NC(=O)CCc2nc3cc(S(=O)(=O)N4CCOCC4)ccc3n2C)c1`, the “hERG current change (%, negative = inhibition) at 1uM” value is -9.32%. As for `CCN1c2cccc3cccc(c23)S1(=O)=O`, the figure is -2.47%. As for `C#CCOCCOCCOCCNc1nc(N2CCN(C(=O)[C@H]([C@@H](C)CC)n3cc(CCCC[NH3+])nn3)CC2)nc(N2CCN(C(=O)[C@H](C)n3cc(CCC[NH+]=C(N)N)nn3)CC2)n1.[Cl-]`, the figure is 15.1%.

`CC(C)[C@H](NC(=O)c1ccccc1)C(=O)N1CCc2ccccc21`: the “hERG current change (%, negative = inhibition) at 1uM” value is on record as 4.91%. As for `COc1ccccc1/C=C/C=N/n1c(-c2ccc(Cl)cc2)n[nH]c1=S`, the figure is 14.8%.

In the case of `O=C(c1cccc(F)c1)N1CCN(S(=O)(=O)c2ccc(C(F)(F)F)cc2)CC1`, the “hERG current change (%, negative = inhibition) at 1uM” value is given as -11.4%. Next, `COc1ccc(C(=O)c2coc3ccc(O)c(CN4CCCCC4)c23)cc1`: -61.4%; `COC(=O)N/N=C/C1=CCC2CC1C2(C)C` (stereo not drawn): -3.78%.
